Reference: the supplement of paper PMC11125491
± gives the standard deviation of the averaged measurements. Growth of baker's yeast expressing single-residue variants of Pneumocystis jirovecii dihydrofolate reductase in 8.8 or 44 µM methotrexate (about 75% and 90% inhibition of the wild type). Selection coefficient per generation; 0 = like wild type, above 0 = less sensitive, below 0 = more sensitive or loss of function. No active / inactive call per row; the paper calls resistant above 0.220 (8.8 µM) or 0.243 (44 µM) together with a significance test. At 44 µM about 15% of codons end with one read or none, so the lowest values are floors (replicate rank correlation 0.74; 0.94 at 8.8 µM).

B1: UniProt A0EPZ9; numbered along this chain (parent)
chain: MDWQKSLTLIVALTLSRGIGLKNDLPWKLKSDMMFFSRVTSGLLVTRSTGQMNVVLMGRKTWESLPAHSRPLKNRINVVISRQEVLDLGGGAYHARSLDDALALLSQIYDSTSKIQLNRVFVIGGGELCKAAMEHSRLNRIIATVIHNEVDCDVFFPIDFRSSQSCLPWRKQDHSVLEAWVGSKVPQGKINENGFIYEFEMWIRDI

Variants of: B1
Assay: selection coefficient against synonymous wild-type codons (log2 per generation); higher = faster growth than wild type
Conditions: with Saccharomyces cerevisiae carrying the variant on a plasmid
Experimental: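 Pooled growth of yeast carrying single-residue variants of P. jirovecii dihydrofolate reductase (own DFR1 gene intact), two passages at 30 °C, three cultures, sequenced before and after. Codons with under 15 starting reads are left out; codons of one change are averaged.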

Variant | selection coefficient against synonymous wild-type codons (log2) (methotrexate 8.8 µM) | selection coefficient against synonymous wild-type codons (log2) (methotrexate 44 µM)
P66H | -0.24 ± 0.14 | -0.183 ± 0.09
P66I | -0.313 ± 0.16 | -0.192 ± 0.015
P66K | -0.0231 ± 0.048 | -0.109 ± 0.11
P66L | -0.321 ± 0.13 | -0.155 ± 0.12
P66M | -0.185 ± 0.12 | -0.0842 ± 0.095
P66N | -0.172 ± 0.032 | -0.135 ± 0.087
P66Q | -0.112 ± 0.1 | -0.101 ± 0.18
P66R | -0.115 ± 0.1 | -0.133 ± 0.13
P66S | -0.139 ± 0.087 | -0.0745 ± 0.15
P66T | -0.246 ± 0.068 | -0.175 ± 0.11
P66V | -0.181 ± 0.098 | -0.105 ± 0.11
P66W | -0.431 ± 0.085 | -0.292 ± 0.036
P66Y | -0.14 ± 0.11 | -0.012 ± 0.11
A67C | -0.247 ± 0.033 | -0.157 ± 0.12
A67D | 0.00635 ± 0.041 | -0.0506 ± 0.14
A67E | 0.0794 ± 0.061 | 0.0266 ± 0.015
A67F | -0.0873 ± 0.16 | -0.0323 ± 0.15
A67G | -0.164 ± 0.045 | -0.107 ± 0.094
A67K | 0.0243 ± 0.071 | 0.035 ± 0.032

Variant | selection coefficient against synonymous wild-type codons (log2) (methotrexate 8.8 µM) | selection coefficient against synonymous wild-type codons (log2) (methotrexate 44 µM)
A67L | -0.0794 ± 0.087 | -0.022 ± 0.088
A67M | -0.13 ± 0.037 | -0.127 ± 0.15
A67N | -0.12 ± 0.17 | 0.0523 ± 0.085
A67P | 0.0095 ± 0.12 | -0.0335 ± 0.072
A67Q | -0.0505 ± 0.039 | -0.0883 ± 0.16
A67R | -0.0578 ± 0.066 | -0.0578 ± 0.1
A67S | -0.0527 ± 0.09 | -0.0972 ± 0.095
A67T | -0.0397 ± 0.067 | -0.00687 ± 0.082
A67V | -0.102 ± 0.083 | -0.0942 ± 0.19
A67W | -0.356 ± 0.14 | -0.259 ± 0.099
H68A | -0.102 ± 0.1 | -0.146 ± 0.12
H68C | -0.032 ± 0.048 | -0.153 ± 0.23
H68D | 0.129 ± 0.015 | 0.108 ± 0.088
H68E | 0.0509 ± 0.03 | 0.0379 ± 0.056
H68F | -0.134 ± 0.045 | -0.0796 ± 0.13
H68G | -0.0543 ± 0.038 | -0.0611 ± 0.084
H68I | -0.179 ± 0.15 | -0.124 ± 0.0071
H68K | -0.045 ± 0.06 | -0.0817 ± 0.11
H68L | -0.221 ± 0.082 | -0.161 ± 0.11

Variant | selection coefficient against synonymous wild-type codons (log2) (methotrexate 8.8 µM) | selection coefficient against synonymous wild-type codons (log2) (methotrexate 44 µM)
H68M | -0.244 ± 0.018 | -0.0649 ± 0.039
H68N | 0.0281 ± 0.073 | 0.135 ± 0.068
H68P | -0.293 ± 0.1 | -0.0748 ± 0.078
H68Q | -0.0885 ± 0.038 | -0.1 ± 0.18
H68R | -0.166 ± 0.064 | -0.134 ± 0.077
H68S | -0.0281 ± 0.05 | -0.00282 ± 0.061
H68T | -0.078 ± 0.078 | -0.0665 ± 0.13
H68V | -0.202 ± 0.076 | -0.107 ± 0.054
H68W | -0.0604 ± 0.032 | -0.104 ± 0.056
H68Y | -0.0261 ± 0.12 | 0.0457 ± 0.029
S69A | 0.00977 ± 0.079 | 0.00906 ± 0.081
S69C | 0.139 ± 0.033 | 0.13 ± 0.081
S69D | 0.363 ± 0.029 | 0.406 ± 0.028
S69E | 0.325 ± 0.051 | 0.334 ± 0.036
S69F | 0.207 ± 0.029 | 0.268 ± 0.0089
S69G | -0.0928 ± 0.049 | -0.115 ± 0.085
S69H | 0.0718 ± 0.026 | -0.11 ± 0.12
S69I | 0.0686 ± 0.058 | 0.0598 ± 0.12
S69K | -0.0229 ± 0.066 | -0.174 ± 0.16
